# Experimental data taken from PubChem BioAssay AID686978 (National Center for Advancing Translational Sciences (NCATS), 2013).
# Out of some 420,000 compounds screened, about 64,000 (15%) were called active. Inconclusive results, whose numbers are uncertain, are shown with a selection of clear calls. The call rests on the fitted dose curve; in most records, active means well fitted inhibition curve with a large enough effect; inconclusive means small, poorly fitted or top-dose-only effect; inactive means flat fitted curve, though single readings scatter. Potencies of inconclusive entries are left out as doubtful fits.
# Assay: qHTS for Inhibitors of human tyrosyl-DNA phosphodiesterase 1 (TDP1): qHTS in cells in absence of CPT; further: nearly all actives have a fitted effect of over 55% in size
# Settings: DT40 Tdp1-/- hTDP1 cells, no CPT, ATP luminescence, 48 h; activity change, negative = growth inhibition: at 46.2 µM (top of the series) unless noted
# Method in brief: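 DT40 Tdp1-/-;hTDP1 cells, no CPT (DMSO vehicle only), 400 cells/well; compounds pin-transferred; ≥48 hr, 37 °C; CellTiter-Glo 30 min RT dark, luminescence read.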
# On the % scale 0 is the no-effect control and ±100 the full control effect; potency means the concentration at half of the fitted maximal effect; tags describe the fitted curve by direction and shape.
SMILES,Potency,"activity change, negative = growth inhibition"
COCc1nnc(NC(=O)c2ccccc2[N+](=O)[O-])s1,inactive,–
Cc1cccc(N2CCN(C(=O)C3CCN(S(=O)(=O)N4CCOCC4)CC3)CC2C)c1 (centres undefined),active: 20.6 µM,–
CC(=O)N(CCc1ccccc1C)Cc1cc2cc3c(cc2[nH]c1=O)OCO3,"inconclusive [inhibitor, partial curve]",–
COc1ccc(C(=O)N2CCN(c3ccc(C)cc3C)CC2)cc1OC,active: 25.9 µM,–
CC(C)CCNC(=O)Nc1ccc2c(c1)N(Cc1ccccc1)C(=O)c1ccccc1S2,"inconclusive [inhibitor, single point]",–
Cc1ccc(C(=O)Nc2sc(C)c(C)c2C(=O)c2ccccc2)cc1,"inconclusive [inhibitor, single point]",–
Cc1ccc(CCC(=O)Nc2ccc(N(C)C)cc2)o1,"inconclusive [inhibitor, single point]",–
Cc1cc(C)cc(NS(=O)(=O)c2ccc3[nH]cc(C(=O)N4CCc5ccccc54)c(=O)c3c2)c1,"inconclusive [inhibitor, single point]",–
COc1ccc(N2CCN(C(=O)COC(=O)CC(NC(N)=O)c3ccc(Cl)cc3)CC2)cc1 (centres undefined),"inconclusive [inhibitor, single point]",–
Cc1ccccc1Nc1c(-c2ccc(Br)o2)nc2ccc(Cl)cn12,"inconclusive [inhibitor, single point]",–
CCc1ccc(NC(=O)Cc2c(C(=O)O)c(C)cn2C)cc1,inactive,–
O=C(CCc1nnc2n(Cc3ccc(F)cc3)c(=O)c3ccccc3n12)NCCN1CCOCC1,inactive,–
O=C(CC(c1ccco1)S(=O)(=O)c1ccccc1)c1ccccc1 (centres undefined),"inconclusive [inhibitor, partial curve]",–
COCOCCn1cc(CN2CCS(=O)(=O)N(Cc3ccc(-c4ccc(Cl)nc4)cc3)C(C)C2=O)nn1 (centres undefined),"inconclusive [inhibitor, partial curve]",–
CN(Cc1cccc2ncccc12)C(=O)c1cnn(-c2ncc3c(n2)-c2ccccc2CC3)c1C1CC1,active: 16.4 µM,–
COc1cc(Br)cc2cc(C(=O)N3CCCCC3C)c(=O)oc12 (centres undefined),–,inconclusive: -32.9% [inhibitor]
Cc1nc(-c2ccc(Cl)cc2)sc1C1(C)CC(c2ccccc2)=NO1 (centres undefined),inactive,–
COc1ccc(C2c3cc(OC)c(OC)cc3CCN2C(=O)c2ccccc2Br)cc1OC (centres undefined),"inconclusive [inhibitor, single point]",–
COc1ccc(CCNC(=O)c2ccc3c(c2)N(Cc2ccc(Cl)cc2)C(=O)c2ccccc2S3)cc1OC,active: 16.4 µM,–
Cc1ccc(NC(=O)CCN2CCN(CCO)CC2)cc1C,inactive,–
CC(=O)c1ccc(S(=O)(=O)N2CCN(CC(=O)Nc3ccccc3C(=O)NC3CC3)CC2)cc1,"inconclusive [inhibitor, partial curve]",–
Fc1cccc(CO/N=C/c2c(-c3ccccc3)nc3ccc(Cl)cn23)c1,"inconclusive [inhibitor, single point]",–

SMILES,Potency,"activity change, negative = growth inhibition"
CCOC(=O)C1CCCN(C(=O)c2csc(-c3ccc4c(c3)CCO4)n2)C1 (centres undefined),"inconclusive [inhibitor, partial curve, poor fit]",–
CCCCn1c(-c2csc(CC)c2)n[nH]c1=S,"inconclusive [inhibitor, single point]",–
COc1ccc(N(C)S(=O)(=O)c2cccc(C(=O)NCC3CCCCC3)c2)cc1,active: 13 µM,–
Cc1c(CCNC(=O)c2ccco2)sc2nc(-c3ccc(F)cc3)nn12,active: 23.1 µM,–
CCN(Cc1nc(-c2ccc(OC)cc2)oc1C)S(=O)(=O)c1ccc(C)cc1,"inconclusive [inhibitor, single point]",–
O=C1NC(=O)/C(=C\c2ccc(OCc3cccc([N+](=O)[O-])c3)cc2)N1,"inconclusive [inhibitor, single point]",–
CCNC(=S)Nc1cccc(S(=O)(=O)Nc2ccccc2OC)c1,active: 23.1 µM,–
COc1ccccc1-c1nn2c(C3COc4ccccc4O3)nnc2s1 (centres undefined),"inconclusive [inhibitor, single point]",–
O=S(=O)(NC1CCCCC1Sc1ncccn1)c1ccccc1 (centres undefined),"inconclusive [inhibitor, partial curve, poor fit]",–
COc1ccccc1CNC(=O)C1=CCN(S(=O)(=O)c2ccc(C)cc2)CC1,"inconclusive [inhibitor, single point]",–
Cc1cc(N(CC(=O)NC2CC2)S(C)(=O)=O)ccc1Br,inactive,–
COc1ccc(-c2cc3c(=O)n(CC(=O)Nc4ccc(Cl)cc4)nc(C)n3n2)cc1,inactive,–
COCC1CCCCN1C(=O)c1cc(COc2ccc(C)c(C)c2)on1 (centres undefined),active: 20.6 µM,–
COc1cc(-c2cc(OC)c3c(C)oc(C)c3c(=O)c2)ccc1O,"inconclusive [inhibitor, single point]",–
O=C(CNCc1ccccc1Cl)Nc1cc(S(=O)(=O)N2CCOCC2)ccc1Cl,"inconclusive [inhibitor, partial curve]",–
CN(CC(=O)Nc1ccccc1C(F)(F)F)C(=O)c1cc(-c2cccs2)nn1-c1ccccc1,inactive,–
COc1ccccc1C(=O)N(Cc1sccc1C)C1CCS(=O)(=O)C1 (centres undefined),inactive,–
CCOc1ccccc1Nc1nnc(-c2cc3cc(OC)ccc3oc2=O)s1,active: 7.31 µM,–
CCN(CC)c1cc2c(cc1F)c(=O)c(S(=O)(=O)c1ccc(OC)cc1)cn2Cc1ccccc1,active: 23.1 µM,–
CC(=O)c1ccc(NC(=O)Cn2c(-n3nc(C)cc3C)nc(C)c(C)c2=O)cc1,"inconclusive [inhibitor, single point]",–
COc1ccc([C@@H]2[C@@H]3C(=O)N(C(C)(C)C)C(=O)[C@@H]3[C@]3(Cc4ccccc4)C(=O)N(c4cccc(Br)c4)C(=O)N23)cc1,"inconclusive [inhibitor, single point]",–
CCOC(=O)c1sc2nc(NC(=O)COc3ccccc3)sc2c1C,active: 18.4 µM,–
